# Assay results published in PubChem BioAssay AID1345082 (National Center for Advancing Translational Sciences (NCATS), 2018).
# Screen size: about 94,000 compounds; about 4,000 (4.3%) were called active. Inconclusive results, whose numbers are uncertain, are shown with a selection of clear calls. Calls come from the whole dose curve; as a rule, active = well fitted inhibition curve with a large enough effect; inconclusive = small, poorly fitted or top-dose-only effect; inactive = no such curve, though single readings can be large or run the other way. Potencies beside an inconclusive call are fits to weak or partial responses and may not hold up.
# Assay: Cytotoxic Profiling in NIH 3T3 Cell Line of Diverse Libraries Using Quantitative High-Throughput Screening; note: nearly all actives have a fitted effect of over 55% in size
# Conditions: NIH 3T3 viability, CellTiter-Glo ATP luminescence, 48-72 h; series mostly up to 96.7 µM
# Procedure, shortened: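 Cytotoxicity is measured as loss of cellular ATP: NIH 3T3 cells (400/well) are exposed to compound for 48 or 72 hr at 37 °C, then CellTiter-Glo luminescence is imaged after 10 min at room temperature.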
# Potency is the fitted concentration of half-maximal effect; tags give direction and shape of the fitted curve.
row,SMILES,Potency
1,CNC(=O)CN(C)[C@H]1C[C@@H]2CO[C@H](C(C)C)C[C@@H]2C1,"inconclusive: 56.2 µM [inhibitor, partial curve, poor fit]"
2,O=C(NCc1cccc(C(F)(F)F)c1)c1ccc2nc(-c3cccnc3)oc2c1,inactive
3,Cc1cnc(C(=O)N2C[C@@H](Oc3cccnc3)C[C@H]2C(=O)N2CCOCC2)cn1,inactive
4,C1CC(Cc2noc(C3CCOCC3)n2)CN1 (stereo unspecified),"inconclusive: 50.1 µM [inhibitor, partial curve, poor fit]"
5,O=C(CCC[C@@H]1[C@H]2CCCN3CCC[C@@H](CN1S(=O)(=O)c1cccc(F)c1)[C@@H]23)N1CCOCC1,inactive
6,Cc1noc(C)c1-c1cc2c(c(-c3cccc(CO)c3)c1)C(=O)N(C)C2=O,"inconclusive: 56.2 µM [inhibitor, partial curve, poor fit]"
7,CCc1noc(-c2nc(-c3ccc(F)c(F)c3)no2)n1,inactive
8,CC(=O)N1CCC(N2C[C@H](O)C[C@H]2c2nc(-c3ccccc3)no2)CC1,inactive
9,O=C(c1ccc(Br)o1)N1CCC(c2n[nH]c(=O)n2Cc2ccc(F)cc2)CC1,"inconclusive: 50.1 µM [inhibitor, partial curve, poor fit]"
10,CCC1=C(C(=O)OC)C(c2ccccc2OC)N2C(CC(=O)N3CCC(C)CC3)=CSC2=N1 (stereo unspecified),"inconclusive: 56.2 µM [inhibitor, partial curve, poor fit]"
11,Cc1noc(C)c1C(=O)N1CCC2(CC1)CN(C(=O)N(C)C)Cc1ccccc1O2,"inconclusive: 70.8 µM [inhibitor, single point]"
12,COc1ccc(C(=O)N[C@H]2C[C@@H](Cc3cc(COc4ccccc4)on3)C2(C)C)cc1,active: 28.2 µM
13,O=C(c1ncoc1C1CC1)N1CCOC(c2ccc(Cl)cc2)C1 (stereo unspecified),"inconclusive: 89.1 µM [inhibitor, partial curve, poor fit]"
14,COc1ccc(C2=NOC3(CCCN(Cc4ccc(C(F)(F)F)cc4)C3)C2)cc1 (stereo unspecified),"inconclusive: 44.7 µM [inhibitor, partial curve]"
15,Cc1cc(N2CCNC(c3ccccc3)C2)n2nc(C)c(C)c2n1 (stereo unspecified),"inconclusive: 56.2 µM [inhibitor, partial curve, poor fit]"
16,CCCOCCCNC(=O)c1c(C)noc1-c1ccccc1Cl,"inconclusive: 70.8 µM [inhibitor, partial curve, poor fit]"
17,CC(C)CNc1ccc2c(n1)C(C)(C(=O)NC1CC1)CN(Cc1ccccc1)C2 (stereo unspecified),"inconclusive: 39.8 µM [inhibitor, partial curve, poor fit]"
18,O=C(Nc1ccc(-c2nnc3n2CCCC3)cc1)c1ccccc1F,inactive
19,N#Cc1cccc(-c2c(C(=O)NCc3ccc(F)cc3)nc3sccn23)c1,"inconclusive: 100 µM [inhibitor, partial curve, poor fit]"
20,COc1ccc(-c2nnc(C[C@@H]3C[C@@H](C(C)C)[C@H](CN4CCN(CCO)CC4)C=C3C)o2)cc1,"inconclusive: 50.1 µM [inhibitor, partial curve, poor fit]"
21,COc1ncccc1CN(Cc1cccnc1OC)C[C@H]1COCc2nc3ccc(C)cc3n21,"inconclusive: 56.2 µM [inhibitor, partial curve, poor fit]"
22,CC(C)(C)c1cc(C[C@@H]2C[C@H](NS(C)(=O)=O)C2(C)C)no1,inactive

row,SMILES,Potency
1,COc1ccc(C2(C(=O)NCc3ccccc3)CCOCC2)cc1,inactive
2,Cc1cc(C(=O)Nc2cccc(-c3nnc4n3CCCC4)c2)n[nH]1,inactive
3,COCCN1Cc2[nH]nc(-c3ccccc3OC)c2CC1=O,"inconclusive: 100 µM [inhibitor, single point]"
4,O=C(CN1C(=O)NC(c2ccc(Cl)cc2)C2=C1COC2=O)Nc1ccc2c(c1)CCC2 (stereo unspecified),active: 25.1 µM
5,Cc1nc(-c2c3n(c(=O)n(CC(=O)Nc4ccc(C)c(F)c4)c2=O)CCCC3)no1,inactive
6,CC(C)CCN1C(=O)CC[C@]2(C(=O)N3CCC(N4CCCCC4)CC3)CCCC[C@@H]12,inactive
7,CCC(=O)Nc1ccc2nnc(-c3ccc(C(=O)Nc4ccc5c(c4)OCCO5)cc3)n2c1,inactive
8,O=C(NC[C@H]1O[C@@H](CC(=O)N2CCCC2)[C@H](O)[C@@H]1O)c1cccc(F)c1,inactive
9,CCOc1cccc(CNC(=O)c2cc3n(n2)CC(c2ccc4c(c2)OCO4)OC3)c1 (stereo unspecified),"inconclusive: 50.1 µM [inhibitor, single point]"
10,COc1ccc(CN2CCOc3ccc(C(=O)NCc4ccccc4F)cc3C2)cc1OC,inactive
11,CCCCn1c(=O)c(C(=O)N2CCN(C(=O)Nc3ccccc3)CC2)nc2cccnc21,inactive
12,COc1cccc(-c2cnc([C@@H]3COCCN3C3CCOCC3)[nH]2)c1,inactive
13,COC[C@H]1C[C@@H](NCC(C)C)[C@H](O)[C@@H]1O,inactive
14,Clc1cccc(-c2cnc([C@@H]3COCCN3Cc3ccccc3)[nH]2)c1,active: 79.4 µM
15,CCCOc1nccnc1NC1CCN(C(=O)c2ccncc2)CC1,inactive
16,C#CCNC(=O)c1cc(-c2ccccc2C(F)(F)F)nc2c1cnn2C,"inconclusive: 50.1 µM [inhibitor, partial curve, poor fit]"
17,Cc1ccc2c(c1)N(C(=O)Cn1ccn3nc(-c4ccc(F)cc4)c(CO)c3c1=O)CCO2,"inconclusive: 44.7 µM [inhibitor, partial curve, poor fit]"
18,CN(Cc1cc(C2CC2)n[nH]1)c1nccc(-c2cccnc2)n1,"inconclusive: 50.1 µM [inhibitor, partial curve, poor fit]"
19,CN1CCN(C(=O)c2ccnc(-c3nnc4ccc(N(C)c5ccccc5)nn34)c2)CC1,active: 10 µM
20,CN(C)C(=O)c1ccc2c(c1)n(Cc1cccc(F)c1)c(=O)c1ccnn12,"inconclusive: 50.1 µM [inhibitor, partial curve, poor fit]"
21,COc1ccccc1-c1nc2nccc(-c3cc4ccccc4o3)n2n1,"inconclusive: 56.2 µM [inhibitor, partial curve, poor fit]"
22,COc1ccc(C(=O)N2CCC(c3n[nH]c(=O)n3Cc3ccc(F)cc3)CC2)cc1OC,"inconclusive: 70.8 µM [inhibitor, single point]"

row,SMILES,Potency
1,C=CCN1CC2(CCC1=O)CCN(C(=O)NC(C)CC)CC2 (stereo unspecified),inactive
2,Cc1cccc(C)c1N1C(C(=O)OC(C)(C)C)=C(O)c2ccccc2S1(=O)=O,active: 20 µM
3,O=C(NC1CCCCC1)[C@@H]1Cc2nc[nH]c2CN1Cc1cc2ccccc2o1,"inconclusive: 126 µM [inhibitor, single point]"
4,O=C(c1cccs1)N1CCC(Oc2cccc(F)c2)C1 (stereo unspecified),"inconclusive: 25.1 µM [inhibitor, partial curve]"
5,CCCN1CCC[C@H]1c1nc(-c2ccc(NCCOC)nc2)no1,inactive
6,O=C(c1ccc(C(F)(F)F)cc1)N1CCC2(Cc3ccccc3NC2=O)C1 (stereo unspecified),"inconclusive: 31.6 µM [inhibitor, partial curve, poor fit]"
7,COCCN1C[C@H]2COc3ccccc3[C@H]2N(C(=O)COC)CCC1=O,"inconclusive: 79.4 µM [inhibitor, single point]"
8,CCCCN(C)C(=O)c1cc(-c2ccc(C)cc2)cn1CC,"inconclusive: 56.2 µM [inhibitor, partial curve, poor fit]"
9,COc1cc(C(=O)NC2CCCc3c2[nH]c2c(Cl)cccc32)cc(OC)c1OC (stereo unspecified),inactive
10,CN(c1ccccc1)c1ccc2nnc(-c3cc(C(=O)NCc4cccnc4)ccn3)n2n1,active: 25.1 µM
11,CC1=C[C@@H](CNC(=O)COc2ccccc2)[C@H](C(C)C)C[C@H]1Cc1nc2ccncc2[nH]1,"inconclusive: 4.47 µM [inhibitor, full curve, poor fit]"
12,CCOC(=O)c1ccc(NC(=O)Cn2c(-c3ccc(F)cc3)nc(C)c(CCO)c2=O)cc1,"inconclusive: 35.5 µM [inhibitor, partial curve]"
13,O=C(c1ccccc1)N1CCCC(n2cc(-c3nc(-c4ccccc4)no3)nn2)C1 (stereo unspecified),"inconclusive: 17.8 µM [inhibitor, partial curve, poor fit]"
14,O=C(Nc1ccc(F)c(Cl)c1)c1cnc(-c2ccccc2)nc1-c1ccncc1,active: 25.1 µM
15,Cn1cc(CN2CCCCCCNC(=O)[C@@H]3CCC[C@@H]32)c2ccccc21,"inconclusive: 70.8 µM [inhibitor, single point]"
16,CC1(C)C(=O)N(Cc2ccccc2F)[C@H]2CN(C3CCOCC3)C[C@H]2[S+]1(=O)[O-],"inconclusive: 112 µM [inhibitor, single point]"
17,COc1cccc(CN2CCCC(N3CCN(c4cccc(C(F)(F)F)c4)CC3)C2)c1O (stereo unspecified),"inconclusive: 50.1 µM [inhibitor, partial curve, poor fit]"
18,FC(F)(F)c1cccc(C2=NOC3(CCN(Cc4ccccc4)CC3)C2)c1,"inconclusive: 44.7 µM [inhibitor, partial curve, poor fit]"
19,Cc1cccc(CNC(=O)c2csc(N3CCN(c4ccccc4)CC3)n2)c1,"inconclusive: 44.7 µM [inhibitor, partial curve, poor fit]"
20,Cc1nnn2c(C(=O)NCc3ccc(Cl)nc3)cccc12,"inconclusive: 89.1 µM [inhibitor, partial curve]"
21,CCCC1c2nccn2CCCN1C(=O)c1ccc(OC)nc1OC (stereo unspecified),inactive
22,O=C(COc1ccccc1)N1CCC2(CC1)CC(N(C(=O)c1ccccc1)C1CC1)CCO2 (stereo unspecified),"inconclusive: 44.7 µM [inhibitor, partial curve, poor fit]"
